# The supplement of paper PMC7826260
# The list shows a part of the results. Each Rep nickase domain was tested in vitro on the same pool of single strands (1 h at 37 °C, 3 µM enzyme); the outer parts of the 90-letter strands are left off. A value is the log2 ratio of uncut reads to the pool without enzyme; more negative means more cut, near 0 not cut, and no call is made. Counts are relative to all reads; values above 0 arise when much of the pool is cut.
# Test system: T1, Rep nickase domain of wheat dwarf virus
# T1 sequence (Rep 1-137, printed without the tag): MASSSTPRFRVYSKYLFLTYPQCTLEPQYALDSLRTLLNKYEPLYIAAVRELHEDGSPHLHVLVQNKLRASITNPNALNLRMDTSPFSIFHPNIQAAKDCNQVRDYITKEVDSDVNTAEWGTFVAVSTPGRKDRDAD
# Experiment: uncleaved DNA left, log2 of reads against the no-enzyme library (log2 ratio); higher = less cleavage (more negative = more Rep cleavage of the k-mer); sequences stand for … in CTCGTCCG…ACCGGAGA
# Procedure: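 A pool of 90-nt single-stranded DNAs with seven random bases just before the constant AC of the nick site (name = the seven bases) was cut by 3 µM recombinant His6-SUMO-tagged Rep nickase domain (300 nM DNA, 50 mM HEPES pH 8.0, 50 mM NaCl, 1 mM MnCl2, 1 h, 37 °C, three replicates). Uncut DNA was amplified and sequenced.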
row,Sequence,uncleaved DNA left (log2)
1,TATGGTA,0.155
2,CCGAAGG,0.134
3,GATACTT,0.201
4,GCCCAGG,0.0117
5,ATTGTCT,-0.0752
6,GAGACAT,0.245
7,CCGACGT,0.0261
8,CGGTGCT,-0.00385
9,AGGTCTG,0.0271
10,TTGATTT,-0.12
11,AATATGT,0.0348
12,GGATTGT,0.0486
13,CGGACGG,0.144
14,TATACGA,-0.0235
15,GCCGTCT,-0.271
16,ATTTTCA,0.00632
17,GGCAACC,0.166
18,ATGACCT,0.112
19,TGGCTCG,-0.208
20,TTGAGTC,-0.0265

row,Sequence,uncleaved DNA left (log2)
1,CGCAAAC,0.00509
2,GAGCTAC,0.0491
3,GCGGCGC,-0.132
4,ACAGCAT,-0.142
5,ATGCTAA,0.078
6,CCAATAG,0.0518
7,GATATCT,0.0936
8,AAGATTG,0.00831
9,CATTCGA,-0.0972
10,CACGTTC,-0.148
11,AGAGAAG,0.123
12,GTGACTC,0.15
13,TGGGTTG,0.0812
14,TGGAAGA,0.106
15,TCGATAT,0.0338
16,CTACGAT,-0.0824
17,TGGTCGC,0.0285
18,TTATCAG,0.0297
19,CGGTCAC,0.0952
